Sequences and labels used below:
B1: LINE1-full (parent)
chain: UACGUAGGUGGUUUUCCCCUGAUAGUGCUAAGGGGGCCUGGAAGUUUGGACUGGGCAGAGCUCAACACAGCGUGGCAAAGUGGCUGUGGCUAGACUGCCUCUCUGGAUUCCUCGUCACUCAGCAGGGCAUCUCUGAGAGAAAUGCC

Read counts are not given, so values of variants with three or more changes are uncertain.

In the data set the parent is B1. The experiment in a line: self-cleavage, relative activity (ratio to wild type); higher = more cleavage; in vitro, sequencing; the parent is a self-cleaving ribozyme.
UACGUAGGUGGUUUUCCCCUGAUAGUGCUAAGGGGGCCCGGAAGUUUGGGCUGGGCAGAGCUCAACACAGCGUGGCAAAGUGGCAGUGGCUAGACUGCCUCUCUGGAUUCCUCGUCACUCAGCAGGGCAUCUCUGAGAGAAAUGCC: the self-cleavage was determined as 0.04. On to UACGUAGGUGGUUUUCCCCUGAUAGUGCUAAGGGGGCCCGGAAGUUUGGACUGGGCAGAGCUCCACACAGCGUGGCAAAGUGGCUGUGGCUAGACUGCCUCUCUGGACUCCUCGUCACUCAGCAGGGCAUCUCUGAGAGAAAUGCC, for which the self-cleavage came out at 0.29. The figure for UACGUAGGUGGUUUUCCCCUGAUAGUGCUAAGGGGGCCCGGAAGUUUGGACUGGGCAGAGCUCAACACUGCGUGGCGAAGUGGCUGUGGCUAGACUGCCUCUCUGGAUUCCUCGUCACUCAGCAGGGCAUCUCUAAGAGAAAUGCC is 0. As to UACGUAGGUGGUUUUCCCCUGAUAGUGCUAAGGGGGCCAGGAAGUUUGGACUGGGCAGAGCUCAACACAGCGUGGCAAAGUGGCUGUGGCUAGACUGCCUCCCUGGAUUCCUCGUCACUCAGCAGGGCACCUCUGGGAGAAAUGCC, the self-cleavage amounted to 1.2. In the case of UACGUAGGUGGUUUUCCCCUGAUAGUGCUAAGGGGGCCCGGAAGUUUGGACUGGGCAGAGCUCAACGCAGCGUGGCAAAGUGGCUGUGGCUAGACUGCCUCUCUGGAUUCCUCGACACUCAGCUGGGCAUCUCUGAGAGAAAUGCC it was 1.04. For the variant UACGUAGGUGGUUUUCCCCUGAUAGUGCUAAGGGGGCCCGGAAGUUUGGACUGGGCAGAGCUCAACACAGCGUGGCAAAGUGGCUGUGGCUAGGCUGCCUCUCUGGAUUCCUCGUUACUCAGCAGGGCAUCUCUGAGAGAAAUGCC, the self-cleavage was determined as 0.14. Turning to UACGUAGGUGGUUUUCCCCUGAUAGUGCUAAGGGGGCCCGGAGGUUCGGACUGGGCAGAGCUCAACACAGCGUGGCAAAGUGGCUGUGGCUAGACUGCCUCUCUGGAUUCCUCGUCACUCAGCAGGGCAUCUCUGAGUGGAAUGCC, the self-cleavage turned out to be 1.84. The figure for UACGUAGGUGGUUUUCCCCUGAUAGUGCUAAGGGGGCCCGGAGGUUUGGACUGGGCAGAGCUCAACACAGCGUGGCAAAGAGGCAGUGGCUAGACUGCCUCUCUGGAUUCCUCGUCACUCAGCAGGGCAUCUCUGUGAGAAAUGCC is 0.09; for UACGUAGGUGGUUUUCCCCUGAUAGUGCUAAGGGGGCCCGGAAGUUUGGACUGGGCAGAGCUCAACACAGCGUGGCAGAGUGGCUGUGGCUAGACUGCCCCUCUGGAUUCCUCGUCACUCAGCAGGGCAUCUCUGAGAGAAAUGCC it is 1.7. The figure for UACGUAGGUGGUUUUCCCCUGAUAGUGCUAAGGGGGCCCGGAAGUUUGGACUGGGCAGAGCUCAACACAGCGUGGCAAUGUGGCUGUGGCUAGACUGCCUCUCUGGAUUCCUCGUCACUCAGCAGGGCAUCUCUGAGAGGAAUGCC is 1.62; for UACGUAGGUGGUUUUCCCCUGAUAGUGCUAAGGGGGCCCGGAAGUUUGGACUGGGCAGAGCUCAACGCAGCGUGGUAAAGUGGCUGUGGCUAGACUGCCUCUCUGGAUUCCUCGUCACUCAGCAGGGCAUCUCUGAGAGAAAUGCC it is 0.5; for UACGUAGGUGGUUUUCCCCUGAUAGUGCUAAGGGGGCCCGGAAGUUUGGACUGGGCAGAGCUCAACUCAGCGUGGCAAAGUGGCUGUGGCUAGACUGCCUCUCUGGAUUCCUCGUCACUCAGCGGGGCGUCUCUGAGAGAAAUGCC it is 0.

UACGUAGGUGGUUUUCCCCUGAUAGUGCUAAGGGGGCCCGGAAGUUUGGACUGGGCUGAGCUCAACACAGCGAGGCAAAGUGGCUGUGGCUAGACUGCCUCUCUGGAUUCCUCGUCACUCAGCAGGGCAUCUCUGAGAGAAAUGCC: the self-cleavage turned out to be 0.05. The figure for UACGUAGGUGGUUUUCCCCUGAUAGUGCUAAGGGGGCCCGGAAGUUUGGUCUGGGCAGAGCUCGACACAGCGUGGCAAAGUGGCUGUGGCUAGACUGCCCCUCUGGAUUCCUCGUCACCCAGCAGGGCAUCUCUGAGAGAAAUGCC is 0.

Turning to UACGUAGGUGGUUUUCCCCUGAUAGUGCUAAGGGGGCCCGGAAGUUUGGACUGGGCAGAGCUCAACGCAGCGUGGCGAAGUGGCUGUGGCUAGAUUGCCUCUCUGGAUUCCUCGUCACUCAGCAGGGCAUCUCUGAGAGAAAUGCC, the self-cleavage stood at 0.06. In the case of UACGUAGGUGGUUUUCCCCUGAUAGUGCUAAGGGGGCCCGGAAGUUUGGACUGGGCAGAGCUCAACACAGCGUGGCAAGGUGGCUGUGGCUAGACUGCCUCUCUGGAUUCCUUGUCACUCAGCAGGGCAUCUCUGAGAGAAAUGCC it was 1.34; in that of UACGUAGGUGGUUUUCCCCUGAUAGUGCUAAGGGGGCCCGGAAGUUUGGACUGGGCAGAGCUCAACACGGCGUGGCAAGGUGGCUGUGGCUAGACUGCCUCUCUAGAUUCCUCGUCACUCAGCAGGGCAUCUCUGAGGGAUAUGCC, 0.73. In the case of UACGUAGGUGGUUUUCCCCUGAUAGUGCUAAGGGGGCCAGGAAGUUUGGACUGGGCAGAGCUCAACACAGCGUGGCAAAGUGGCUGUGGCUAGACUGCCUCCCUGGAUUCCUCGUCACUCGGCAGGGCAUCUCUGAGAGAAAUGCC it was 0.84. The figure for UACGUAGGUGGUUUUCCCCUGAUAGUGCUAAGGGGGCCCGGAAGUUUGGACUGGGCAGAGCUCAACACAGCGUGGCAAUGUGGCUGUGGCUAGACUGCCACUCUGGAUUCCUCGUCACUCAGCAGGGCAUCUCUGAGAGAAAUGCC is 0.49.

Values taken from the RNAGym collection of RNA variant scans (doi:10.7554/elife.90254).
